Measured values as given in the supplement of paper PMC7125110.
± gives the standard error. Variants at the background level are over-represented here.

B1: glmS ribozyme (parent)
chain: AUAAAAGCGCCAGAACUACAGAAAUGUAGUUGACGAGGAGGAGGUUUAUCGAAUUUUCGGCGGAUGCCUCCAAA

Experiments:
Conditions in all cases: with glucosamine-6-phosphate
glucosamine-6-phosphate [1] = variants of: B1; assay: self-cleavage kobs at 40 uM GlcN6P; higher = faster cleavage; RNA array
Method in brief: (§1)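 Tracking of barcoded ribozyme variants used a hybridised Cy3 probe at 37 °C, after in situ transcription by E. coli RNA polymerase on sequenced MiSeq chips. The flowed solution held 40 μM to 10 mM glucosamine-6-phosphate in HEPES/KCl/Mg(OAc)2 buffer, and imaging ran over ~14 h. kobs was taken from exponential decay fits of normalised per-tile medians, and kcat and KM from weighted Michaelis–Menten fits.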

glucosamine-6-phosphate [2] = variants of: B1; assay: self-cleavage kobs at 10000 uM GlcN6P; higher = faster cleavage; RNA array
Method in brief: as §1

glucosamine-6-phosphate [3] = variants of: B1; assay: self-cleavage kobs at 640 uM GlcN6P; higher = faster cleavage; RNA array
Method in brief: as §1

glucosamine-6-phosphate [4] = variants of: B1; assay: self-cleavage kobs at 160 uM GlcN6P; higher = faster cleavage; RNA array
Method in brief: as §1

glucosamine-6-phosphate [5] = variants of: B1; assay: self-cleavage kobs at 2500 uM GlcN6P; higher = faster cleavage; RNA array
Method in brief: as §1

Variant: A14G U30C G63A
- self-cleavage kobs at 40 uM GlcN6P (glucosamine-6-phosphate [1]): < 1e-05 s⁻¹
- self-cleavage kobs at 10000 uM GlcN6P (glucosamine-6-phosphate [2]): < 1e-05 s⁻¹

Variant: A14G U47G C58G C71U
- self-cleavage kobs at 40 uM GlcN6P (glucosamine-6-phosphate [1]): 4.07e-05 ± 2e-05 s⁻¹

Variant: A14U A15U G44A C61G
- self-cleavage kobs at 40 uM GlcN6P (glucosamine-6-phosphate [1]): < 1e-05 s⁻¹
- self-cleavage kobs at 640 uM GlcN6P (glucosamine-6-phosphate [3]): < 1e-05 s⁻¹
- self-cleavage kobs at 10000 uM GlcN6P (glucosamine-6-phosphate [2]): < 1e-05 s⁻¹

Variant: A14U A48C G51C U65G
- self-cleavage kobs at 40 uM GlcN6P (glucosamine-6-phosphate [1]): < 1e-05 s⁻¹
- self-cleavage kobs at 10000 uM GlcN6P (glucosamine-6-phosphate [2]): < 1e-05 s⁻¹

Variant: A14U A48C U55A
- self-cleavage kobs at 40 uM GlcN6P (glucosamine-6-phosphate [1]): < 1e-05 s⁻¹

Variant: A14U A52C C71G
- self-cleavage kobs at 40 uM GlcN6P (glucosamine-6-phosphate [1]): < 1e-05 s⁻¹
- self-cleavage kobs at 640 uM GlcN6P (glucosamine-6-phosphate [3]): < 1e-05 s⁻¹

Variant: A14U A64U C71U
- self-cleavage kobs at 40 uM GlcN6P (glucosamine-6-phosphate [1]): < 1e-05 s⁻¹

Variant: A14U C61U U65G
- self-cleavage kobs at 40 uM GlcN6P (glucosamine-6-phosphate [1]): < 1e-05 s⁻¹

Variant: A14U G37A U65G
- self-cleavage kobs at 40 uM GlcN6P (glucosamine-6-phosphate [1]): < 1e-05 s⁻¹

Variant: A14U G38U G63U
- self-cleavage kobs at 40 uM GlcN6P (glucosamine-6-phosphate [1]): < 1e-05 s⁻¹

Variant: A14U G51A U57C G60U A64G U65G
- self-cleavage kobs at 40 uM GlcN6P (glucosamine-6-phosphate [1]): < 1e-05 s⁻¹

Variant: A14U U30C A33C C50U
- self-cleavage kobs at 40 uM GlcN6P (glucosamine-6-phosphate [1]): < 1e-05 s⁻¹

Variant: A15C A39C C61G
- self-cleavage kobs at 40 uM GlcN6P (glucosamine-6-phosphate [1]): < 1e-05 s⁻¹
- self-cleavage kobs at 10000 uM GlcN6P (glucosamine-6-phosphate [2]): < 1e-05 s⁻¹

Variant: A15C C61U C67G
- self-cleavage kobs at 40 uM GlcN6P (glucosamine-6-phosphate [1]): < 1e-05 s⁻¹
- self-cleavage kobs at 10000 uM GlcN6P (glucosamine-6-phosphate [2]): < 1e-05 s⁻¹

Variant: A15C G43C
- self-cleavage kobs at 40 uM GlcN6P (glucosamine-6-phosphate [1]): < 1e-05 s⁻¹
- self-cleavage kobs at 640 uM GlcN6P (glucosamine-6-phosphate [3]): < 1e-05 s⁻¹
- self-cleavage kobs at 160 uM GlcN6P (glucosamine-6-phosphate [4]): < 1e-05 s⁻¹
- self-cleavage kobs at 2500 uM GlcN6P (glucosamine-6-phosphate [5]): < 1e-05 s⁻¹
- self-cleavage kobs at 10000 uM GlcN6P (glucosamine-6-phosphate [2]): < 1e-05 s⁻¹

Variant: A15C G44A A53G
- self-cleavage kobs at 40 uM GlcN6P (glucosamine-6-phosphate [1]): < 1e-05 s⁻¹

Variant: A15C G51C
- self-cleavage kobs at 40 uM GlcN6P (glucosamine-6-phosphate [1]): < 1e-05 s⁻¹
- self-cleavage kobs at 160 uM GlcN6P (glucosamine-6-phosphate [4]): < 1e-05 s⁻¹
- self-cleavage kobs at 2500 uM GlcN6P (glucosamine-6-phosphate [5]): < 1e-05 s⁻¹
- self-cleavage kobs at 10000 uM GlcN6P (glucosamine-6-phosphate [2]): < 1e-05 s⁻¹

Variant: A15C G59C
- self-cleavage kobs at 40 uM GlcN6P (glucosamine-6-phosphate [1]): < 1e-05 s⁻¹
- self-cleavage kobs at 640 uM GlcN6P (glucosamine-6-phosphate [3]): < 1e-05 s⁻¹
- self-cleavage kobs at 160 uM GlcN6P (glucosamine-6-phosphate [4]): < 1e-05 s⁻¹
- self-cleavage kobs at 2500 uM GlcN6P (glucosamine-6-phosphate [5]): < 1e-05 s⁻¹
- self-cleavage kobs at 10000 uM GlcN6P (glucosamine-6-phosphate [2]): < 1e-05 s⁻¹

Variant: A15C G63C
- self-cleavage kobs at 40 uM GlcN6P (glucosamine-6-phosphate [1]): < 1e-05 s⁻¹
- self-cleavage kobs at 640 uM GlcN6P (glucosamine-6-phosphate [3]): < 1e-05 s⁻¹
- self-cleavage kobs at 160 uM GlcN6P (glucosamine-6-phosphate [4]): < 1e-05 s⁻¹
- self-cleavage kobs at 10000 uM GlcN6P (glucosamine-6-phosphate [2]): < 1e-05 s⁻¹

Variant: A15C U57A
- self-cleavage kobs at 40 uM GlcN6P (glucosamine-6-phosphate [1]): < 1e-05 s⁻¹
- self-cleavage kobs at 160 uM GlcN6P (glucosamine-6-phosphate [4]): < 1e-05 s⁻¹

Variant: A15G A36G
- self-cleavage kobs at 40 uM GlcN6P (glucosamine-6-phosphate [1]): < 1e-05 s⁻¹
- self-cleavage kobs at 640 uM GlcN6P (glucosamine-6-phosphate [3]): < 1e-05 s⁻¹
- self-cleavage kobs at 160 uM GlcN6P (glucosamine-6-phosphate [4]): < 1e-05 s⁻¹

Variant: A15G A39U G59C G63A G66A
- self-cleavage kobs at 40 uM GlcN6P (glucosamine-6-phosphate [1]): < 1e-05 s⁻¹
- self-cleavage kobs at 2500 uM GlcN6P (glucosamine-6-phosphate [5]): < 1e-05 s⁻¹

Variant: A15G A52C U56C C58U C71G
- self-cleavage kobs at 40 uM GlcN6P (glucosamine-6-phosphate [1]): < 1e-05 s⁻¹
- self-cleavage kobs at 2500 uM GlcN6P (glucosamine-6-phosphate [5]): < 1e-05 s⁻¹

Variant: A15G C16A U30A G38C
- self-cleavage kobs at 40 uM GlcN6P (glucosamine-6-phosphate [1]): < 1e-05 s⁻¹
- self-cleavage kobs at 10000 uM GlcN6P (glucosamine-6-phosphate [2]): < 1e-05 s⁻¹

Variant: A15G C71A
- self-cleavage kobs at 40 uM GlcN6P (glucosamine-6-phosphate [1]): 0.000251 ± 5.9e-05 s⁻¹
- self-cleavage kobs at 640 uM GlcN6P (glucosamine-6-phosphate [3]): 0.00108 ± 0.00025 s⁻¹
- self-cleavage kobs at 160 uM GlcN6P (glucosamine-6-phosphate [4]): 0.00102 ± 0.00025 s⁻¹
- self-cleavage kobs at 2500 uM GlcN6P (glucosamine-6-phosphate [5]): 0.006 ± 0.0015 s⁻¹
- self-cleavage kobs at 10000 uM GlcN6P (glucosamine-6-phosphate [2]): 0.005 ± 0.0016 s⁻¹

Variant: A15G G29C C61G
- self-cleavage kobs at 40 uM GlcN6P (glucosamine-6-phosphate [1]): < 1e-05 s⁻¹
- self-cleavage kobs at 10000 uM GlcN6P (glucosamine-6-phosphate [2]): < 1e-05 s⁻¹

Variant: A15G G32U G43A U45A C50A C58G C71G
- self-cleavage kobs at 40 uM GlcN6P (glucosamine-6-phosphate [1]): < 1e-05 s⁻¹
- self-cleavage kobs at 640 uM GlcN6P (glucosamine-6-phosphate [3]): < 1e-05 s⁻¹
- self-cleavage kobs at 2500 uM GlcN6P (glucosamine-6-phosphate [5]): < 1e-05 s⁻¹
- self-cleavage kobs at 10000 uM GlcN6P (glucosamine-6-phosphate [2]): < 1e-05 s⁻¹
